PubChem BioAssay AID485313 (National Center for Advancing Translational Sciences (NCATS), 2010)
The campaign covered roughly 320,000 compounds. About 7,600 (2.4%) were called active. This list was built around the results that the source calls inconclusive (neither active nor inactive); the mix of calls is not that of the screen. Calls come from the whole dose curve; as a rule, active = well fitted activation curve with a large enough effect; inconclusive = small, poorly fitted or top-dose-only effect; inactive = no such curve, though single readings can be large or run the other way. Potencies of inconclusive entries are doubtful fits and often do not repeat.

assay: qHTS Assay for NPC1 Promoter Activators; conditions: Huh7 NPC1 promoter luciferase reporter, 24 h; series mostly up to 9.22 µM; activation: at the top concentration; note: nearly all actives have a fitted effect of over 60% in size; for activation: % of control where 0% means no effect
In short: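 Luciferase expression driven by the NPC1 promoter was measured in stably transfected Huh7 cells after a 24 h compound incubation, using a luciferase reagent and a luminescence read.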
Potency is the fitted concentration of half-maximal effect; tags give direction and shape of the fitted curve.

activation, inactive:
Cc1ccc(-c2c(C(=O)N/N=C/C3CC=CCC3)nnn2-c2nonc2N)cc1 (stereo unspecified) -4.86%, COc1ccc(-c2nnc3ccc(SCC(=O)Nc4nc5ccccc5s4)nn23)cc1OC -0.985%, CC(C)CN(C(=O)CN1C(=O)NC(c2ccccc2)(c2ccccc2)C1=O)C1CCS(=O)(=O)C1 (stereo unspecified) 0.266%, COc1ccc(NC(=O)c2ccc(C#CC(C)(C)O)cc2)cc1 8.18%, Cc1cc(NC(=O)c2ccc(C#N)cc2)on1 18.9%, COc1ccc(C(=O)N/N=C/c2ccc(OC)c(CN3CCN(c4ccc(F)cc4)CC3)c2)cc1 -3.8%, CCOC(=O)CNC(=O)COc1coc(CN2CCN(c3ccc(F)cc3)CC2)cc1=O -3.26%, CC(=O)N(C(C)=O)n1c(/C=C/c2ccc([N+](=O)[O-])cc2)nc2ccccc2c1=O -0.37%, Nc1cc(S(=O)(=O)O)cc([N+](=O)[O-])c1O -5.47%, Cc1cccc(-c2noc(CCCOc3ccc(Cl)cc3Cl)n2)c1 0.377%, COc1ccc(C)cc1-n1nc2ccccc2n1 -4.59%, CCC(C)[C@H]1CNCCN1CCc1cccc2ccccc12 (stereo partly specified) -3.67%, COc1cccc(-c2nc(CS(=O)(=O)CC(=O)Nc3ccccc3Br)c(C)o2)c1 -4.76%, O=C(Nc1ccc(N2CCOCC2)cc1)c1cccc(-n2cnnc2)c1 -1.27%

Potency, inconclusive:
CC(C)(C)c1ccc(C(=O)Nc2cccc(-n3cnnn3)c2)cc1 3.98 µM [activator, partial curve], COc1cccc(NC(=O)/C=C/c2ccc([N+](=O)[O-])cc2)c1 5.62 µM [activator, single point], COc1ccc(CNC(=O)Cn2cccc2C(=O)c2ccccc2)cc1 3.16 µM [activator, single point], O=C(NC1CC1)c1cccc(NC(=O)c2cn3ccccc3n2)c1 2.51 µM [activator, partial curve], COc1ccccc1NS(=O)(=O)c1cc(Cl)ccc1OC 1 µM [activator, single point], Fc1cccc(/C=N/N=C/c2cccc(F)c2)c1 16.4 µM [activator, partial curve], COc1ccc(N/N=C(/N=Nc2nc(C)cc(=O)[nH]2)c2ccccc2)cc1 1.12 µM [activator, partial curve], C=CCn1c(=NC(=O)c2cccs2)sc2cc(NC(C)=O)ccc21 2 µM [activator, partial curve], Cc1nn(C(=O)c2cccs2)c(N)c1-c1ccccc1 3.16 µM [activator, single point], CCc1ccc(-c2nc(CCl)cs2)cc1 2.82 µM [activator, partial curve], Cc1cc(Cl)c2oc(C(=O)N3CCN(C(=O)c4ccco4)CC3)c(C)c2c1 5.62 µM [activator, single point], O=C(NC(=O)c1ccccc1)Nc1ccc(-c2cnco2)cc1 2.24 µM [activator, partial curve], COc1ccc(-c2nnc(-c3ccc(N)cc3)o2)cc1 2.82 µM [activator, partial curve], O=C(/C=C/c1ccc(F)cc1)NC(=S)N1CCN(c2ccccn2)CC1 3.55 µM [activator, partial curve], O=C(N/N=C/c1ccc(Cl)cc1)c1n[nH]c2c1CCCC2 6.31 µM [activator, single point], Cc1cnc(NC(=O)c2sc3ccccc3c2Cl)s1 0.398 µM [activator, partial curve, poor fit], COc1ccc(NC(=O)c2ccc(-c3ccc(C(C)=O)cc3)o2)cn1 2.82 µM [activator, partial curve], COc1cccc(CNc2ncc(Br)cc2Br)c1O 3.55 µM [activator, single point], COc1ccc(C(=O)c2coc3ccc(OC(C)=O)cc23)cc1 5.62 µM [activator, single point], COc1ccc(NC(=S)Nc2ccccn2)c(OC)c1 3.55 µM [activator, partial curve], CC(C)(C)C1CCC(C(=O)Nc2nccs2)CC1 (stereo unspecified) 5.62 µM [activator, single point], Cc1cccc(NC(=S)NNC(=O)c2ccc3c(c2)OCO3)c1 5.62 µM [activator, single point], Cc1cc(NC(=O)c2ccco2)ncc1NC(=O)Cc1ccccc1 3.55 µM [activator, partial curve], O=C(NC(=S)Nc1cccnc1Cl)c1ccc(Cl)cc1 3.16 µM [activator, partial curve], C/C(NC(=O)c1ccccc1F)=C1\C(=O)C[C@@H]2[C@H]1C2(C)C 3.16 µM [activator, partial curve]

Potency, active:
O=C(COc1ccccc1)Nc1cccc(-c2nc3cc4ccccc4cc3[nH]2)c1 0.631 µM, O=C(Nc1ccc2oc(-c3ccccc3Cl)nc2c1)c1ncn[nH]1 1.41 µM, Cc1ccc(OCC(=O)Nc2ccccc2[N+](=O)[O-])c(Br)c1 3.16 µM, COc1ccc(NC(=O)n2ncc3c(C)cccc32)cc1OC 2.24 µM, CCn1c(/C=C/c2ccccc2)nc2ccccc21 2 µM, C/C(=N/NC(=O)c1cnccn1)c1cccs1 2 µM, Clc1ccccc1CSc1ncn(-c2ccccc2)n1 3.55 µM, O=[N+]([O-])c1cccc(N/N=C/c2ccc(N3CCOCC3)cc2)c1 2.82 µM, C=CCn1c2ccccc2c(=O)c2cc(C#CC3(O)CCCCC3)ccc21 1.26 µM, Cc1ccc(-c2cc3nc(C)cc(C)n3n2)cc1 3.55 µM, O=C(Nc1sc2c(c1C(=O)O)CCCCC2)c1ccccc1F 3.16 µM, CCOc1ccc(N(CC(=O)NCc2ccccc2C)S(C)(=O)=O)cc1 3.16 µM
